# Assay results published in the supplement of paper PMC10441789.
# The other results are listed elsewhere or left out. Antibody binding of pooled human sera (four to six donors per pool; dilution not stated) to peptides of the Trypanosoma cruzi antigen TSSA on microarrays. Quantile-normalised fluorescence in arbitrary units, mean of duplicate arrays; higher = more binding. No active / inactive call. The uninfected pools are read here as the healthy donors of the same country. The strongest signals lie near the top of the scale (about 60,000).
# Columns and labels:
# Assay in all cases: antibody binding signal (normalised fluorescence) (arbitrary fluorescence units); higher = stronger serum antibody binding to peptide
# [1] = test system: pooled sera of chronic Chagas disease patients, Bolivia
# Protocol: (§1)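 Microarray of 15-residue peptides over residues 30-55 of Trypanosoma cruzi TSSAII, each with 1 to 10 substitutions at naturally variable positions, probed with one serum pool per country.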
# [2] = test system: pooled sera of chronic Chagas disease patients, Brazil
# Protocol: as §1
# [3] = test system: pooled sera of chronic Chagas disease patients, Colombia
# Protocol: as §1
# [4] = test system: pooled sera of chronic Chagas disease patients, Mexico
# Protocol: as §1
# [5] = test system: pooled sera of chronic Chagas disease patients, USA
# Protocol: as §1
# [6] = test system: pooled sera of uninfected people, Argentina
# Protocol: as §1
# [7] = test system: pooled sera of uninfected people, Bolivia
# Protocol: as §1
# [8] = test system: pooled sera of uninfected people, Brazil
# Protocol: as §1
# [9] = test system: pooled sera of uninfected people, Colombia
# Protocol: as §1
# [10] = test system: pooled sera of uninfected people, Mexico
# Protocol: as §1
# [11] = test system: pooled sera of uninfected people, USA
# Protocol: as §1
Sequence,antibody binding signal [1],antibody binding signal [2],antibody binding signal [3],antibody binding signal [4],antibody binding signal [5],antibody binding signal [6],antibody binding signal [7],antibody binding signal [8],antibody binding signal [9],antibody binding signal [10],antibody binding signal [11]
TDNKTATGGTPSQPG,1010,797,1960,330,726,587,367,668,273,1500,155
GKDNKTAAGGAPSQP,194,583,2810,585,571,145,100,110,191,100,95.6
KTAAGEAPSQPGASS,11500,39300,173,814,4380,185,314,233,130,134,163
SGTDKKAATGGTPSP,870,2280,5940,1310,1350,304,196,533,1250,759,203
SGKDKKTAAGEAPSQ,2020,1400,1020,889,4200,178,251,101,467,93.2,91.8
EKKPAAGGTPSPSGA,195,355,5350,300,1120,183,613,2540,165,112,745
STPPSGTEKKPATGE,46500,43700,508,38800,18100,1050,808,1050,223,238,199
KKPAAGETPSQSGAS,456,3460,215,169,428,259,171,94.3,150,140,290
KDKKAAAGGAPSPSG,234,191,2070,438,292,123,89.6,106,117,87.2,102
KDKKPATGGAPSQSG,263,321,285,360,857,217,234,134,97.5,94,98.9
TDNKAATGETPSQSG,4680,23900,109,212,13000,98.2,342,206,106,225,90.6
STPPSGTENKTAAGE,40000,49000,174,4100,35300,3560,339,272,399,330,286
GTDNKAATGEAPSPS,38600,39100,265,356,30200,141,556,1180,114,120,88.2
PPSGKDKKPAAGGAP,847,725,1690,35600,1390,217,564,131,258,80.2,144
PSGKENKAAAGEAPS,3400,14600,13500,11700,13400,6710,2890,197,637,312,190
GKDNKTATGGTPSPS,303,488,2400,1460,1540,194,128,124,204,77.2,133
GTDKKAATGEAPSPS,20300,26600,1980,677,27100,521,208,253,502,306,163
KDNKAATGETPSPSG,1000,15100,273,268,13000,391,623,174,193,263,3020
TSSTPPSGKENKTAT,5670,10600,1420,4910,2880,2050,1230,131,581,334,324
GKENKTATGGAPSPS,296,9040,4740,5210,14400,430,109,112,114,126,109
TEKKAAAGEAPSQSG,10900,9940,469,645,11500,109,356,130,171,196,270
ENKTATGETPSQSGA,1590,7860,262,233,7090,124,206,227,144,200,159
KENKPAAGEAPSPSG,408,23800,286,470,15400,185,307,135,121,130,131
DKKTATGGTPSQSGA,459,490,2760,760,1420,397,105,282,513,466,140
GTENKTAAGGAPSPP,730,600,5610,1690,1240,399,380,389,279,389,179
DNKTATGETPSQSGA,1790,7950,384,171,6950,96.3,218,280,140,155,140
TPPSGTEKKTAAGET,10300,22600,310,2970,1360,644,261,349,1160,168,202

Sequence,antibody binding signal [1],antibody binding signal [2],antibody binding signal [3],antibody binding signal [4],antibody binding signal [5],antibody binding signal [6],antibody binding signal [7],antibody binding signal [8],antibody binding signal [9],antibody binding signal [10],antibody binding signal [11]
GTDNKAATGGTPSQP,1260,29700,1000,533,183,355,647,2160,199,1030,77.9
KDNKAAAGEAPSQPG,6750,34800,212,186,12100,387,1410,152,169,75,115
SSTPPSGTENKPAAG,54100,54300,419,11300,47300,9010,1670,862,984,894,1120
KKPATGEAPSPSGAS,15900,40500,185,262,30000,953,773,162,188,118,360
GTEKKTATGETPSPP,907,1590,1160,1970,8000,330,631,201,135,209,573
KDKKAATGGTPSPSG,249,168,382,742,448,147,82,211,337,84.7,119
KKTAAGEAPSQPGAS,5420,27900,268,260,4060,341,269,88.7,569,82.6,257
PPSGTDKKPAAGEAP,25200,42600,5850,45900,13700,534,541,634,652,4920,396
GKDNKPATGEAPSQS,30300,48200,4610,7830,41600,1010,1410,221,398,406,138
TDKKAATGETPSPSG,2650,11200,220,212,11400,340,199,323,497,464,1910
TDNKPATGGTPSPPG,564,2230,280,468,231,213,607,507,388,296,133
ENKPATGGTPSPPGA,3410,2980,285,714,537,300,574,418,360,158,224
STPPSGKEKKTAAGE,1690,827,867,16800,1530,473,712,106,347,189,204
NKTATGEAPSQPGAS,39000,41700,217,320,21300,565,998,674,445,283,1080
KAAAGETPSPSGASS,337,1480,278,2850,925,215,300,103,113,187,527
PSGTENKAAAGEAPS,28400,43300,2490,2560,17200,1170,558,263,369,332,343
GKDNKPATGGAPSQS,770,2650,919,1370,2640,389,963,127,143,124,127
GTEKKTAAGETPSPP,266,354,630,876,3890,143,599,160,779,193,377
NKAATGGTPSPPGAS,694,2090,340,302,287,628,1140,570,731,162,1820
SGTEKKTAAGGTPSP,215,608,14700,1380,2390,127,434,1260,315,304,210
DNKPATGGTPSPSGA,1310,1220,264,401,448,353,510,735,496,286,159
ENKPATGETPSPPGA,34700,34600,270,376,25200,322,483,227,128,1550,550
GKDKKAAAGGTPSQP,302,257,1870,724,1390,231,84.8,435,108,175,102
GTEKKPAAGEAPSQP,15200,42100,1100,1800,14800,117,1070,2360,82.4,464,950
GTEKKPAAGETPSPS,263,1780,1340,1400,2770,115,1060,1390,197,564,2310
TEKKAAAGEAPSPPG,263,5770,487,583,12300,142,149,226,114,205,153
GTENKAATGEAPSPP,40700,38200,2050,2810,28700,156,306,131,152,102,93.5
